According to PubChem BioAssay AID927 (National Center for Advancing Translational Sciences (NCATS), 2007):
In all, about 60,000 compounds went through this assay and about 65 (0.1%) were called active. The inconclusive results got no clear call from the source; some entries with a clear call stand among them for comparison. Calls come from the whole dose curve; as a rule, active = well fitted inhibition curve with a large enough effect; inconclusive = small, poorly fitted or top-dose-only effect; inactive = no such curve, though single readings can be large or run the other way. Potencies beside an inconclusive call are fits to weak or partial responses and may not hold up.

molecular target: Ubiquitin carboxyl-terminal hydrolase 2 (Homo sapiens) (UniProt O75604); assay: qHTS Assay for Inhibitors of Ubiquitin-specific Protease USP2a; conditions: USP2a enzymatic assay; Potency: qHTS inhibition; activity change, negative = inhibition: at 38.3 µM (top of the series); note: nearly all actives have a fitted effect of over 60% in size;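 for activity change, negative = inhibition: plate controls were DMSO for no effect and NEM full inhibition control for full effect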
In short: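 USP2 core (20 nM final) was preincubated with compound for 30 min at RT in 20 mM Tris-HCl pH 8.0, 2 mM CaCl2, 2 mM beta-mercaptoethanol; Ub-PLA2 (20 nM) plus NBD C6-HPC (20 uM) then added, fluorescence read after 2.5 h.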
Potency is the fitted concentration of half-maximal effect; tags give direction and shape of the fitted curve.

Chain of UniProt O75604 (O75604 whole entry, looked up): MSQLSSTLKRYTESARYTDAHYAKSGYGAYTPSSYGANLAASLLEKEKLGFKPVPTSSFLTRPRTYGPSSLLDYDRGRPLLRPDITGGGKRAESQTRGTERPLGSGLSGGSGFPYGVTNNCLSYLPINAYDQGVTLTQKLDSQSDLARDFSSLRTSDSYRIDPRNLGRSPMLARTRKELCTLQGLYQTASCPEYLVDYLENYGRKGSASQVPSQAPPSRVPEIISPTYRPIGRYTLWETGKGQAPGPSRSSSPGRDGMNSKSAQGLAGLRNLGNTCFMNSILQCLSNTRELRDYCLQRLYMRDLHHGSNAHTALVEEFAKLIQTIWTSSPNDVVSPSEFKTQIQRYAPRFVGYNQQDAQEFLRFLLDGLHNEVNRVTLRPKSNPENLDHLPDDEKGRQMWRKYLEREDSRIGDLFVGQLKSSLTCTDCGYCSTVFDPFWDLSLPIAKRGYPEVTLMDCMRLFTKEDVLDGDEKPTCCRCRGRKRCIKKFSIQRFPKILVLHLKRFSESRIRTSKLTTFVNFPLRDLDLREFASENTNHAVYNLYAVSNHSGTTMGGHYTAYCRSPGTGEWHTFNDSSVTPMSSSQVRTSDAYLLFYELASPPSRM

Compound | activity change, negative = inhibition | Potency
Brc1ccccc1-c1nnc(CSc2nnnn2-c2ccccc2)o1 | inactive: 9.14% | –
CNc1nnc(CSc2nc3ccccc3s2)s1 | inactive: -1.51% | –
O=C(CCCC(=O)NCC1CCCO1)NCC1CCCO1 (stereo not given) | – | inconclusive: 3.98 µM [inhibitor, single point]
CC[C@H](C(=O)[C@H](C)[C@H](O)[C@H](C)CCc1ccc(C)c(O)c1C(=O)O)[C@H]1O[C@](CC)([C@@H]2CC[C@@](O)(CC)[C@H](C)O2)C[C@H]1C | inactive: 16.3% [at 17.1 µM] | –
O=C(NC1CCCC1)c1nc2c(nnn2Cc2cccc(Cl)c2)c(=O)[nH]1 | – | inconclusive: 3.16 µM [inhibitor, full curve]
C[C@H]1CN(S(=O)(=O)c2cccc3cnccc23)CCN1 | inactive: -0.593% | –
COc1ccc(-c2nsc3c(N4CCN(C(=O)c5ccco5)CC4)ncnc23)cc1 | inactive: 23.3% | –
N#Cc1c(N2CCN(C(=O)c3ccco3)CC2)nc(-c2ccccc2)c2c1CCCC2 | – | inconclusive: 25.1 µM [inhibitor, single point]
CCOC(=O)c1cc(C#N)c(N)nc1C | inactive: 4.32% | –
Cc1ccccc1-c1cc(-c2ccccc2O)n[nH]1 | – | inconclusive: 25.1 µM [inhibitor, single point]
Cc1ccc2oc(=O)n(Cc3ccccc3OC(C)C)c2c1 | – | inconclusive: 10 µM [inhibitor, partial curve]
O=C(NCc1ccc(F)cc1)c1ccc(CS(=O)(=O)Cc2ccc(F)cc2)o1 | – | inconclusive: 12.6 µM [inhibitor, single point]
COc1ccc2[nH]cc(CCNc3nc(-c4ccc(N(C)C)cc4)nc4ccccc34)c2c1 | – | inconclusive: 15.8 µM [inhibitor, partial curve, poor fit]
Cc1cc(O)c(C=O)c2c1C(=O)Oc1c(COC(=O)/C=C/C(=O)O)c(O)c(C(=O)O)c(C)c1O2 | – | inconclusive: 25.1 µM [inhibitor, single point]
c1ccc(-n2ncc3c2ncn2nnnc32)cc1 | inactive: -8.09% | –
c1ccc2c(c1)CCCc1cc(NCCN3CCOCC3)nnc1-2 | – | inconclusive: 12.6 µM [inhibitor, single point]
CCOC(=O)c1c(NC(=O)c2ccco2)sc2c1CCCCC2 | – | inconclusive: 25.1 µM [inhibitor, single point]
CCCCn1c(NC(=O)c2ccccc2)nc2ccccc21 | – | inconclusive: 25.1 µM [inhibitor, single point]
N#Cc1c(N)sc(=S)c2c1CCCC2 | inactive: -16% | –
C=CCc1c(C)[nH]c(=S)c(C#N)c1C | inactive: 18.5% | –
CC(C)(C)n1nnnc1C(c1cccs1)N1CCCc2ccccc21 (stereo not given) | inactive: 101% | –
c1ccc(Nc2nc(-c3cccs3)cs2)nc1 | inactive: 15% | –
O=C(Nc1ccc2c(c1)OCCO2)c1ccc2nccnc2c1 | inactive: 0.296% | –
O=C(NC1CCCCC1)c1ccc(Cn2cc(Br)cn2)o1 | inactive: 5.71% | –
Cc1csc(NC(=O)c2sc3nc(-c4cccs4)ccc3c2N)n1 | inactive: 41.3% | –

Compound | activity change, negative = inhibition | Potency
COc1cc2c(cc1NC(=O)CN1CCN(S(=O)(=O)c3ccc(F)cc3)CC1)oc1ccccc12 | – | inconclusive: 25.1 µM [inhibitor, single point]
Cc1cc(OCc2nn[nH]n2)c2c(C)c(Cc3ccccc3)c(=O)oc2c1 | – | inconclusive: 6.31 µM [inhibitor, partial curve]
Fc1ccc(Nc2ncnc3ccc(-c4ccoc4)cc23)cc1 | inactive: 173% | –
CCOc1cc(C)nc(N2CCCC(C(=O)NCc3ccccc3F)C2)n1 (stereo not given) | inactive: 6.74% | –
COc1ccc(-c2n[nH]c(C(F)(F)F)c2-c2cc3ccccc3o2)c(O)c1 | – | inconclusive: 25.1 µM [inhibitor, single point]
COc1ccc(Oc2c(-c3ccc(O)cc3O)n[nH]c2C)cc1 | – | inconclusive: 0.0001 µM [inhibitor]
CCCOC(=O)c1ccc(Oc2c(-c3ccc(O)cc3O)n[nH]c2C)cc1 | – | inconclusive: 25.1 µM [inhibitor, single point]
N#Cc1ccc(CN2CCC3(CCNCC3)CC2)cc1 | inactive: 40.9% | –
O=S1(=O)C=CC(Sc2nc3ccccc3[nH]2)C1 (stereo not given) | – | inconclusive: 6.31 µM [inhibitor, partial curve]
Cc1cccc(Nc2nc(N)nc(CN3CCN(c4ccccc4)CC3)n2)c1 | inactive: 40.8% | –
Cn1c(/N=C/c2c[nH]c3ccccc23)nc2ccccc21 | inactive: 21.4% | –
COC(=O)c1ccc(OC)c(CSc2nnc(COc3ccccc3)o2)c1 | – | inconclusive: 7.94 µM [inhibitor, partial curve]
COc1cc(O)cc(/C=C/c2ccccc2)c1 | – | inconclusive: 25.1 µM [inhibitor, single point]
CC1CC[C@@]2(C(=O)O)CC[C@]3(C)C(=CCC4[C@@]5(C)CCC(O)C(C)(C)C5CC[C@@]43C)C2C1C (stereo not given in full) | inactive: 30.8% | –
N#Cc1cccc(-c2nc(Nc3ccccc3)c3ccccc3n2)c1 | inactive: 12.6% | –
Cc1ccc(C)c(N2CCN(Cc3nnnn3C3CCCCC3)CC2)c1 | – | inconclusive: 31.6 µM [inhibitor, single point]
CC1=C2C(O)C(=O)OC3CC4C(C)(C)C(=O)C=C[C@]4(C)C(CC1)[C@@]23C (stereo not given in full) | inactive: -2.55% | –
c1coc(C2Nc3cccc4cccc(c34)N2)c1 | – | inconclusive: 25.1 µM [inhibitor, single point]
Cc1ccc(S(=O)(=O)c2c(C)nn(C(C)(C)C)c2OC(=O)C(C)(C)C)cc1 | – | inconclusive: 25.1 µM [inhibitor, single point]
c1ccc2c(N3CCCC3)nc(-c3ccncc3)nc2c1 | – | inconclusive: 12.6 µM [inhibitor, single point]
CCCC(c1nnnn1Cc1ccco1)N1CCN(c2cc(Cl)ccc2C)CC1 (stereo not given) | – | inconclusive: 0.631 µM [inhibitor, full curve, poor fit]
O=c1c(-c2ccc(F)cc2)nc2cnc(Oc3cccc(Cl)c3)nc2n1C[C@H]1CCCO1 | inactive: 142% | –
Cc1cccc(-c2nnc3sc(-c4ccccc4C)nn23)c1 | – | inconclusive: 25.1 µM [inhibitor, single point]
CC(=O)N1CCN(c2ccc(NCc3cccs3)cc2)CC1 | inactive: -2.3% | –
Cc1c(C)c2c(c(C)c1O)CC[C@@](C)(CN1CCN(c3cc(N4CCCC4)nc(N4CCCC4)n3)CC1)O2 | – | inconclusive: 31.6 µM [inhibitor, single point]
